Measurements: the supplement of paper PMC4604168 (melanoma cell lines)
This is one part of the list. Many values rest on one well or one pass, so single values are uncertain.

What follows are compounds tested on MeWo (assay: cell count relative to DMSO control; melanoma cells; higher = more viable cells). Conditions: library dose: low library concentration; 72 h.
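Also: cell number obtained by counting DAPI-stained nuclei in high-throughput microscope images with image analysis software, screen run in 1,536-well plates.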

Which cell count does the source give for `Cc1cn(-c2cc(NC(=O)c3ccc(C)c(Nc4nccc(-c5cccnc5)n4)c3)cc(C(F)(F)F)c2)cn1` [nilotinib] + COC(=O)c1sccc1S(=O)(=O)Nc1ccc(Nc2ccccc2)cc1OC [GSK0660] (first compound 0.2 µM, partner dose 1 µM) here?
The cell count was 111%.

How did the cell count turn out when `Cn1c(=O)n(-c2ccc(C(C)(C)C#N)cc2)c2c3cc(-c4cnc5ccccc5c4)ccc3ncc21` + CO[C@@H]1[C@H](N(C)C(=O)c2ccccc2)C[C@H]2O[C@]1(C)n1c3ccccc3c3c4c(c5c6ccccc6n2c5c31)C(=O)NC4 [Midostaurin] (first compound 0.004 µM, partner dose 0.08 µM) was run?
The cell count was 80.6%.

Which cell count does the source give for `Cc1cn(-c2cc(NC(=O)c3ccc(C)c(Nc4nccc(-c5cccnc5)n4)c3)cc(C(F)(F)F)c2)cn1` [nilotinib] + NC(=O)Nc1cc(-c2cccc(F)c2)sc1C(=O)N[C@H]1CCCNC1 [AZD7762] (first compound 0.2 µM, partner dose 0.02 µM) here?
Its cell count is 100%.

Which cell count does the source give for `COc1ccc(C2=N[C@@H](c3ccc(Cl)cc3)[C@@H](c3ccc(Cl)cc3)N2C(=O)N2CCNC(=O)C2)c(OC(C)C)c1` [Nutlin-3] + O=c1cc(-c2cccc3c2Sc2ccccc2S3)oc(N2CCOCC2)c1 [KU55933] (first compound 0.1 µM, partner dose 1 µM) here?
The cell count was 91.5%.

`Cc1cn(-c2cc(NC(=O)c3ccc(C)c(Nc4nccc(-c5cccnc5)n4)c3)cc(C(F)(F)F)c2)cn1` [nilotinib] + O=S(=O)(c1ccccc1)N(CC(F)(F)F)c1ccc(C(O)(C(F)(F)F)C(F)(F)F)cc1 [T0901317] (first compound 0.2 µM, partner dose 1.4 µM) was tested. Which cell count did it give?
Its cell count is 85.5%.

`Cc1cc(Nc2cc(N3CCN(C)CC3)nc(/C=C/c3ccccc3)n2)n[nH]1` + Cc1ccc(NC(=O)c2cccc(N(C)C)c2)cc1NC(=O)c1ccc(O)cc1 [ZM336372] (first compound 0.04 µM, partner dose 2 µM) was tested. Which cell count did it give?
The cell count was 97.9%.

`Cn1c(=O)n(-c2ccc(C(C)(C)C#N)cc2)c2c3cc(-c4cnc5ccccc5c4)ccc3ncc21` + c1cc(-c2cnn3cc(-c4ccc(OCCN5CCCCC5)cc4)cnc23)ccn1 [Dorsomorphin] (first compound 0.004 µM, partner dose 0.4 µM) was tested. Which cell count did it give?
Its cell count is 72.7%.

`COc1ccc(C2=N[C@@H](c3ccc(Cl)cc3)[C@@H](c3ccc(Cl)cc3)N2C(=O)N2CCNC(=O)C2)c(OC(C)C)c1` [Nutlin-3] + Oc1nc(-c2ccc(C(F)(F)F)cc2)nc2c1CSCC2 [XAV939] (first compound 0.1 µM, partner dose 2 µM) was tested. Which cell count did it give?
Its cell count is 106%.

`Cc1cc(Nc2cc(N3CCN(C)CC3)nc(/C=C/c3ccccc3)n2)n[nH]1` + CCN(CC)CCCCNc1ncc2cc(-c3cc(OC)cc(OC)c3)c(NC(=O)NC(C)(C)C)nc2n1 [PD173074] (first compound 0.04 µM, partner dose 0.1 µM) was tested. Which cell count did it give?
Its cell count is 118%.

For `Cc1cn(-c2cc(NC(=O)c3ccc(C)c(Nc4nccc(-c5cccnc5)n4)c3)cc(C(F)(F)F)c2)cn1` [nilotinib] + NCC(=O)Nc1ccc(-n2nc(C(F)(F)F)cc2-c2ccc3c(ccc4ccccc43)c2)cc1 [OSU03012] (first compound 0.2 µM, partner dose 1 µM), which cell count is on record?
Its cell count is 53.9%.

How did the cell count turn out when `Cc1cn(-c2cc(NC(=O)c3ccc(C)c(Nc4nccc(-c5cccnc5)n4)c3)cc(C(F)(F)F)c2)cn1` [nilotinib] + CO[C@@H]1[C@H](N(C)C(=O)c2ccccc2)C[C@H]2O[C@]1(C)n1c3ccccc3c3c4c(c5c6ccccc6n2c5c31)C(=O)NC4 [Midostaurin] (first compound 0.2 µM, partner dose 0.08 µM) was run?
The cell count was 83.9%.

`Cc1cc(Nc2cc(N3CCN(C)CC3)nc(/C=C/c3ccccc3)n2)n[nH]1` + COC(=O)c1sccc1S(=O)(=O)Nc1ccc(Nc2ccccc2)cc1OC [GSK0660] (first compound 0.04 µM, partner dose 1 µM) was tested. Which cell count did it give?
The cell count was 103%.

How did the cell count turn out when `COc1ccc(C2=N[C@@H](c3ccc(Cl)cc3)[C@@H](c3ccc(Cl)cc3)N2C(=O)N2CCNC(=O)C2)c(OC(C)C)c1` [Nutlin-3] + CC(C)CCN1c2nc(Nc3cc(F)c(O)c(F)c3)ncc2N(C)C(=O)C1C [BID1870] (first compound 0.1 µM, partner dose 0.2 µM) was run?
Its cell count is 99.1%.

Which cell count does the source give for `COc1ccc(C2=N[C@@H](c3ccc(Cl)cc3)[C@@H](c3ccc(Cl)cc3)N2C(=O)N2CCNC(=O)C2)c(OC(C)C)c1` [Nutlin-3] + COc1ccc2c(c1)CCC1C2CCC2(C)C(NCCCCCCN3C(=O)C=CC3=O)CCC12 [U73122] (first compound 0.1 µM, partner dose 0.4 µM) here?
The cell count was 101%.

`Cc1cc(Nc2cc(N3CCN(C)CC3)nc(/C=C/c3ccccc3)n2)n[nH]1` + Oc1nc(-c2ccc(C(F)(F)F)cc2)nc2c1CSCC2 [XAV939] (first compound 0.04 µM, partner dose 2 µM) was tested. Which cell count did it give?
The cell count was 94.9%.

Which cell count does the source give for `COc1ccc(C2=N[C@@H](c3ccc(Cl)cc3)[C@@H](c3ccc(Cl)cc3)N2C(=O)N2CCNC(=O)C2)c(OC(C)C)c1` [Nutlin-3] + CCc1ccc(CCOc2ccc(CC3SC(=O)NC3=O)cc2)nc1 [pioglitazone] (first compound 0.1 µM, partner dose 2 µM) here?
The cell count was 94%.

How did the cell count turn out when `COc1ccc(C2=N[C@@H](c3ccc(Cl)cc3)[C@@H](c3ccc(Cl)cc3)N2C(=O)N2CCNC(=O)C2)c(OC(C)C)c1` [Nutlin-3] + O=C(CCCCCCC(=O)Nc1ccccc1)NO [vorinostat] (first compound 0.1 µM, partner dose 0.08 µM) was run?
Its cell count is 92.8%.

`Cn1c(=O)n(-c2ccc(C(C)(C)C#N)cc2)c2c3cc(-c4cnc5ccccc5c4)ccc3ncc21` + Cn1cncc1[C@@](N)(c1ccc(Cl)cc1)c1ccc2c(c1)c(-c1cccc(Cl)c1)cc(=O)n2C [tipifarnib] (first compound 0.004 µM, partner dose 0.01 µM) was tested. Which cell count did it give?
Its cell count is 80.8%.
